The values that follow come from patent publication US20230349919A1.

Assay [1] deals with human IL-6Rα (hIL-6Rα), barcoded negative control antigen (human) (UniProt P08887). The assay can be described thus: barcoded-antigen count on source cell (scRNA-seq).
For assay [2], the target named is human IL-4Rα (hIL-4Rα) monomeric protein (human) (UniProt P24394). Description: barcoded-antigen count on source cell (scRNA-seq).

UniProt P08887, sequence (P08887 20-358 limits assumed): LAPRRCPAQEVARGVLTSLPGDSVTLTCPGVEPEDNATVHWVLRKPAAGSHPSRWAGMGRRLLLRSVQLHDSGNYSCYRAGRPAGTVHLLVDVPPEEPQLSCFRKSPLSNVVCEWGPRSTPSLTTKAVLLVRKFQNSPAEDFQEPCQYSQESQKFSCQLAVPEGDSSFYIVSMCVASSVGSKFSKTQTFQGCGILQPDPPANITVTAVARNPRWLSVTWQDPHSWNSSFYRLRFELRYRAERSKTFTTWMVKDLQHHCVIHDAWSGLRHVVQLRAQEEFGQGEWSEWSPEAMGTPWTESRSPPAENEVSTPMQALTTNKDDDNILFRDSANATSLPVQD

B1: Table 1 Line # 45 antibody (SP_Plasma_cell) (antibody, human IgG4, V domains shown)
VH: EVQLVESGGGLVQPGRSLRLSCAASGFTFDDYAMYWVRQTPGKGLEWVSGITWNSGSIGYAASVQGRFTISRDNAKNSLYLQMNSLRAEDTALYYCTKDLGGSYLGFDYWGQGTLVTVSS
VL: EIVMTQSPGTLSLSPGERATLS[sequence of about 80 residues omitted]FGQGTKLEIK
Molecule B1 gave an REGN78.L15 ab raw in assay [1] of 25 counts. Moreover, in assay [2], the REGN560.L15 ab raw worked out at 1780 counts.

B2: Table 1 Line # 51 antibody (SP_Plasma_cell) (antibody, human IgG4, V domains shown)
VH: EVQLVESGGGLVQPGGSLRLSCAASGFTFSSHAMHWVRQAPGKGLEYVSGISSNGGSTYHADSVKGRFTISRDNSKNTLYLQMGSLRAEDMAVYYCARYSSRRYYGMDVWGQGTTVTVSS
VL: [sequence of about 100 residues omitted]TFGQGTKLEIK
As for B2, the REGN78.L15 ab raw in assay [1] was determined as 3 counts. The same molecule had an REGN560.L15 ab raw in assay [2] of 897 counts.

B3: Table 1 Line # 9 antibody (BM_Plasma_cell) (antibody, human IgG4, V domains shown)
VH: QVQLVQSGAEVKKPGASVKVSCKASGYTFTSYDINWVRQATGQGLEWVGWMNPNSGNTGYAQKFQGRVTMTRNTSITTAYMELSSLRSEDTAVYYCARPYSRATGYFDLWGRGTLVTVSS
VL: [sequence of about 100 residues omitted]FTFGPGTKIDIK
For B3, the REGN78.L15 ab raw in assay [1] turned out to be 890 counts. This molecule showed an REGN560.L15 ab raw in assay [2] of 3570 counts.
